From PubChem BioAssay AID651582 (Sanford-Burnham Center for Chemical Genomics, 2012)
The other results are listed elsewhere or left out. Further columns of the screen follow, without active or inactive calls. Most of these compounds were active or inconclusive in the main read-out, so they are no random draw.

Test: inhibitors of triacylglycerol accumulation, primary screen, cell-based, uHTS, fluorescence, H9c2 (AID 651582)
Conditions: H9c2 cells, Nile Red lipid (TAG) fluorescence; measured here:; at 12.5 µM; cells loaded with 200 µM oleic acid

| Structure (SMILES) | DAPI nuclei signal change (viability), lower = more cytotoxic [%] |
| --- | --- |
| Nc1nc(CCl)nc(Nc2cccc3ccccc23)n1 | -46.9 |
| COc1cccc(-c2sc3cc(OC)c(OC)cc3c2-c2ccc(OCCN3CCCCC3)cc2)c1 | -34.4 |
| O=C(N1CCN(c2ccccn2)CC1)N1c2ccccc2Sc2ccccc21 | -24.2 |
| Cc1nc2c(ccc3nc(NC(=O)Cc4cccc5ccccc45)sc32)s1 | -2.46 |
| COC(=O)[C@]1(Cc2ccccc2)N[C@H](c2ccc(-c3cccc(Cl)c3)c(OC)c2)[C@@H]2C(=O)N(C)C(=O)[C@@H]21 | -18.5 |
| O=C(Nc1nc2ccc(C(=O)N3CCCCC3)cc2s1)C1CCCCC1 | -26.2 |
| O=C(Nc1nc(-c2ccccn2)cs1)c1ccc(Cl)s1 | -16.1 |
| Cc1ccc(-c2csc(NC(=O)CSc3nc4ccccc4c(=O)n3CCCN(C)C)n2)cc1 | 20.2 |
| CC(=O)Nc1sc2c(c1-c1nc3ccccc3s1)CN(C(C)C)CC2 | -22.1 |
| O=C1C(=O)N(CNc2ccccn2)c2ccccc21 | -26.7 |
| O=C1OCCN1C(=O)[C@H]1[C@H](c2ccc(Cl)cc2)C(c2ccc(F)cc2)=NN1c1ccc(Br)cc1 | -14 |
| COC(=O)c1cc(C(=O)N2CCN(c3cccc(Cl)c3)CC2)cc([N+](=O)[O-])c1 | -40.9 |
| Cc1nc(N/N=C/c2cccc(F)c2)cc(N2CCOCC2)n1 | -41.9 |
| NC(=S)NN=Cc1nccc2c(C(F)(F)C(F)(F)C(F)(F)F)cccc12 | -32.4 |
| N#CC1C=Cc2c(ccc3ccccc23)N1C(=O)c1ccccc1 (centres undefined) | -34.4 |
| CCCC(C(=O)NC(C)(C)C)N(Cc1ccccc1)C(=O)c1snc(C(N)=O)c1N (centres undefined) | -37.8 |
| COc1cc(C(=O)NC2CCN(C)CC2)ccc1Nc1ncc2c(n1)N(Cc1ccccc1)CCC(=O)N2C | -22.3 |
| O=C(Nc1ccc2[nH]c(=O)[nH]c2c1)c1ccc([N+](=O)[O-])o1 | -44.6 |
| COc1ccc(C#Cc2ccc3c(c2)O[C@@H](CN(C)C(=O)Nc2cccc(OC)c2)[C@H](C)CN([C@@H](C)CO)S3(=O)=O)cc1 | -16.3 |
| O=C1c2ccc3c4c(ccc(c24)C(=O)N1CCCCO)C(=O)N(CCCCO)C3=O | -25 |
| Cc1onc(-c2ccc(Cl)cc2Cl)c1-c1csc(N/N=C/c2ccccc2Cl)n1 | 4.16 |
| COc1ccc(-c2nc(NC(=O)C3CCN(c4nc5ccccc5o4)CC3)sc2C)cc1 | -1.43 |

| Structure (SMILES) | DAPI nuclei signal change (viability), lower = more cytotoxic [%] |
| --- | --- |
| COc1ccc(-n2nc(C(=O)Nc3ccc4c(c3)OCO4)c3c4ccccc4n(C)c3c2=O)cc1 | 8.77 |
| O=C(NCCC1=CCCCC1)C1CCN(C(=O)Nc2ccccc2)CC1 | -5.06 |
| COc1cc(C#Cc2c(-c3cncn3C)n(C)c3ccc(-c4cnc(N5CCOCC5)nc4)cc23)cc(OC)c1 | 92.7 |
| CC(C)(C)OC(=O)N(CCc1ccccc1)Cc1ccc(OCc2cccc(NC(=O)/C=C/c3ccccc3)c2)cc1 | 8.59 |
| O=C(Nc1cccc(Cl)c1)c1nc[nH]c1C(=O)NCCCCNC(=O)c1[nH]cnc1C(=O)Nc1cccc(Cl)c1 | 1.76 |
| CCC(=NCCc1c(C)[nH]c2ccc(OC(F)(F)F)cc12)C1=C(O)CC(c2ccccc2)CC1=O (centres undefined) | -32.3 |
| COc1ccccc1Nc1nnc(SCC(=O)Nc2nc(-c3ccc(F)cc3)cs2)s1 | -1.08 |
| COc1ccc(-c2ccc3[nH]c4c(c3c2)CCN2C(=O)[C@@H]([C@H](C)O)[C@@H](N(C)C(=O)Nc3cc(Cl)cc(Cl)c3)C[C@@H]42)cc1 | -14.3 |
| CCC(=O)Nc1ccc(-c2nnc(-c3ccccc3)o2)cc1 | -1.45 |
| COC(=O)Nc1nc2ccc(SC(C)C)cc2[nH]1 | -31.1 |
| C[C@@H]1CN([C@H](C)CO)C(=O)c2cccc(NC(=O)Nc3ccc(C(F)(F)F)cc3)c2O[C@H]1CN(C)S(=O)(=O)c1cccs1 | -10.1 |
| O=C(Cc1coc2ccc3ccccc3c12)Nc1nccs1 | -3.21 |
| O=C(CSc1nc(N2CCCCC2)nc(N2CCCCC2)n1)N1CCN(c2ccccc2)CC1 | -6.41 |
| CC[C@H](C)[C@H](NC(N)=O)C(=O)NCCc1ccc(OC)c(OC)c1 | -39.9 |
| COc1ccc(-c2cc3nc(-c4ccccc4)cc(N4CCN(C(=O)c5ccccc5)CC4)n3n2)cc1 | 88.5 |
| Cc1cccc(N2CCN(C(=O)c3c(-c4ccccc4Cl)noc3C)CC2)c1C | -47.2 |
| CCOC(=O)c1sc(NC(=O)c2sccc2C)cc1C | -8.06 |
| C=CCc1c(C)nc(-c2ccccc2)nc1N/N=C/c1ccncc1 | -26.6 |
| CN(C)CC/C=C1\c2ccc(F)cc2Sc2cc(F)c(Cl)cc21 | -35.5 |
| CCC(C)(C)c1ccc(Oc2ccc(N)cc2)cc1 | -37.6 |
| O=C(CCl)N(c1ccccc1)c1c[nH]c2ccccc12 | -36.9 |
| Cc1cccc(N=Nc2ccc(O)c3ncccc23)c1 | -25 |
